Results on 84 variants are retold here after the RNAGym collection of RNA variant scans (doi:10.1073/pnas.2313332121).

This sample is rich in variants without activity. Some results are limits rather than exact numbers.

Sequences and labels used below:
B1: TPR 5TU (parent)
chain: GGAUCUUCUCGAUCUAACAAAAAAGACAAAUCUGCCACAAAGCUUGAGAGCAUCUUCGGAUGCAGAGGCGGCAGCCUUCGGUGGCGCGAUAGCGCCAACGUUCUCAACUAUGACACGCAAAACGCGUGCUCCGUUGAAUGGAGUUUAUCAUG

Variants of B1 are the subject of the data set. Nature of the data set: polymerase ribozyme fitness, log enrichment relative to wild type (log ratio); higher = more active; in vitro selection for triplet polymerase activity. Summed up: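 Each subunit of a heterodimeric triplet polymerase ribozyme was represented by a PCR-built, transcribed mutant library that underwent triplicate single-round in vitro selection with frozen incubation at −7 °C. Extended constructs were recovered by gel excision, streptavidin-bead capture and RT-PCR, and Illumina sequencing of input and output libraries kept genotypes with ≥10 input reads and ≥1 read per output. Fitness is the logarithm of genotype enrichment relative to wild-type enrichment, from inverse-variance-weighted replicate averages, with a logarithm base of 2.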
U55C G59C C75A U78C G84C C114G U135G: the “polymerase ribozyme fitness (log ratio)” value was at most -4.2.
Under C57U U61A G65A G71U G83C G140C stands at most -4.2; under U55A C57U A73U U127A, at most -4.2.
As to C54U G84A G100C U104C A115U, the “polymerase ribozyme fitness (log ratio)” value was at most -4.2.
Consider G58C G62U C85G A89U U104C A115G, for which the “polymerase ribozyme fitness (log ratio)” value is at most -4.2.
As for U56A G71A U77G G88U C116U, the “polymerase ribozyme fitness (log ratio)” value is at most -4.2.
As to U55A U77G C103G C105A U144A, the “polymerase ribozyme fitness (log ratio)” value is at most -4.2.
For the variant U55A A60G A97U U101G U109A U134A, the “polymerase ribozyme fitness (log ratio)” value is at most -4.2.
G58C U61A U82G A98G C116G U148A: the “polymerase ribozyme fitness (log ratio)” value was at most -4.2.
In the case of C57A G88U A106C it was at most -4.2; in that of C57A A64U C116A, at most -4.2; in that of U56A A60G G81A C108U U127G G143A, at most -4.2.
As for G58C C87G U102G G141U, the “polymerase ribozyme fitness (log ratio)” value was at most -4.2.
For G59A C79G C85U A110G, the “polymerase ribozyme fitness (log ratio)” value is at most -4.2.
As for U53A G74A C87G A91U C105G A115C G126A, the “polymerase ribozyme fitness (log ratio)” value was at most -4.2.
As for C54A A66G G74A A115G, the “polymerase ribozyme fitness (log ratio)” value is at most -4.2.
In the case of U56A A66U C96U A110U, the “polymerase ribozyme fitness (log ratio)” value was at most -4.2.
On to C57G C79A G83U C96U U101A, for which the “polymerase ribozyme fitness (log ratio)” value was at most -4.2.
On to U55G G88C U134C U135A G141A, for which the “polymerase ribozyme fitness (log ratio)” value was at most -4.2.
As to G58U A60C C79A U102G, the “polymerase ribozyme fitness (log ratio)” value was at most -4.2.
For the variant U55A U102A U111G A142C, the “polymerase ribozyme fitness (log ratio)” value is at most -4.2.
Under U56A G74U A107G stands at most -4.2.
Under U53A C75U C87U C99U U139C U145A A150G stands at most -4.2; under C54U G65A G71U C93A U127G, at most -4.2; under C54U G86C C116U C118G G141C U148G, at most -4.2.
G58U G86C A113G U127A U139A U146C: the “polymerase ribozyme fitness (log ratio)” value is at most -4.2.
C54U G58C A73G G86C A119G A121U: the “polymerase ribozyme fitness (log ratio)” value is at most -4.2.
In the case of C54A U55A C96U U104A C105U, the “polymerase ribozyme fitness (log ratio)” value is at most -4.2.
As for U56A U78A C93U C116G A137C, the “polymerase ribozyme fitness (log ratio)” value is at most -4.2.
As to G58C G140U U146G A150C, the “polymerase ribozyme fitness (log ratio)” value was at most -4.2.
As to C54U C69U G74A U102G U146G, the “polymerase ribozyme fitness (log ratio)” value was at most -4.2.
On to U53A U56G C57A G58C G71C U144C, for which the “polymerase ribozyme fitness (log ratio)” value was at most -4.2.
Regarding U55A G81C C85U G128A, the “polymerase ribozyme fitness (log ratio)” value was at most -4.2.
In the case of U56A G67U A91U C99U A106G U144A it was at most -4.2.
Under U55G C85G G100U U151A stands at most -4.2; under C54G G59A A60U G71C C79G C87A G141C U145C, at most -4.2.
Under C54U C72A C95U stands at most -4.2; under G58C A91C C132U G140U, at most -4.2; under C57A G94A G140C G141U, at most -4.2.
In the case of C54U C85A C114U C116G, the “polymerase ribozyme fitness (log ratio)” value was at most -4.2.
In the case of G58U A91U U139A U148C it was at most -4.2; in that of U53G G74A C96U, at most -4.2.
As to C54U C96A A121U U127A G141C, the “polymerase ribozyme fitness (log ratio)” value was at most -4.2.
On to C54A U55G G58C G92A A97U C125G G128U U135C A138G U139A U145G, for which the “polymerase ribozyme fitness (log ratio)” value is at most -4.2.
Turning to C57U C85G A97C U151G, the “polymerase ribozyme fitness (log ratio)” value is at most -4.2.
Consider U53G G86A C96G A120C U135C, for which the “polymerase ribozyme fitness (log ratio)” value is at most -4.2.
U56C C96G G100C: the “polymerase ribozyme fitness (log ratio)” value is at most -4.2.
In the case of C54G C63A A64C G67A it was at most -4.2; in that of U56A C57G A119U G128U C131G, at most -4.2; in that of G59A C93A U135G G141A, at most -4.2.
For the variant C54A G92A A107G U109G G133A U135G, the “polymerase ribozyme fitness (log ratio)” value is at most -4.2.
Consider U53A C72A C87U C99U U101C A137U, for which the “polymerase ribozyme fitness (log ratio)” value is at most -4.2.
Regarding C54A G58C G70A C93U U148C, the “polymerase ribozyme fitness (log ratio)” value is at most -4.2.
For the variant U53G C63U U78A A89G C95G C96G C125A G140C, the “polymerase ribozyme fitness (log ratio)” value is at most -4.2.
With C54U C76G C93A A110U G141U, the “polymerase ribozyme fitness (log ratio)” value is at most -4.2.
U55A C87A G133A A147U: the “polymerase ribozyme fitness (log ratio)” value is at most -4.2.
Under U56G C79U C93A U109C G141C stands at most -4.2; under G58C U78G G92U A107G G143C U148G, at most -4.2.
For U56A C87G C93A, the “polymerase ribozyme fitness (log ratio)” value was at most -4.2.
In the case of U55G G67A A110C A115G it was at most -4.2; in that of U53A U55A C76A C96A, at most -4.2; in that of C54U U78A U82G G92A A110U A142G, at most -4.2.
Turning to U56G C99G C116A G143C U146A, the “polymerase ribozyme fitness (log ratio)” value is at most -4.2.
Under G59A C87U C132G G141C U148A stands at most -4.2; under C57G A66C C75U C85G C87U U111C, at most -4.2; under U56G C79A U144A, at most -4.2.
Turning to U55A C57A G84U G92U C125G G136C G140C G143A, the “polymerase ribozyme fitness (log ratio)” value is at most -4.2.
G58A U78G C87G: the “polymerase ribozyme fitness (log ratio)” value is at most -4.2.
With U55A U56A A64G C93U, the “polymerase ribozyme fitness (log ratio)” value is at most -4.2.
For U55G C108G C132A, the “polymerase ribozyme fitness (log ratio)” value was at most -4.2.
In the case of C57G A97C C99U U139C, the “polymerase ribozyme fitness (log ratio)” value is at most -4.2.
For the variant U53G C79U U104A A137G, the “polymerase ribozyme fitness (log ratio)” value is at most -4.2.
Turning to G58U C87A, the “polymerase ribozyme fitness (log ratio)” value was at most -4.2.
Consider U55A U78G U82G A137U G141A A147U, for which the “polymerase ribozyme fitness (log ratio)” value was at most -4.2.
Take U56A G59U U78C A107G G140C: the “polymerase ribozyme fitness (log ratio)” value was at most -4.2.
With C54A G65A G71C C87A G136A, the “polymerase ribozyme fitness (log ratio)” value was at most -4.2.
In the case of U55A U56A A60U G81C U102G A121U U145G, the “polymerase ribozyme fitness (log ratio)” value was at most -4.2.
For the variant U56A A66G G68A G81C A89C G117U A150U, the “polymerase ribozyme fitness (log ratio)” value is at most -4.2.
Take C54U U56G A73G U77G G86A U102G: the “polymerase ribozyme fitness (log ratio)” value was at most -4.2.
As for U55G C76G, the “polymerase ribozyme fitness (log ratio)” value was at most -4.2.
On to G59A G68A G74A C85A C118G U144A, for which the “polymerase ribozyme fitness (log ratio)” value was at most -4.2.
Consider G59A A91U U148C, for which the “polymerase ribozyme fitness (log ratio)” value is at most -4.2.
As to C54A G88A, the “polymerase ribozyme fitness (log ratio)” value is at most -4.2.
As for C54G C57G C72G G92U, the “polymerase ribozyme fitness (log ratio)” value was at most -4.2.
